# Experimental data reported in PubChem BioAssay AID463173 (ICCB-Longwood Screening Facility, Harvard Medical School, 2010).
# About 4,300 (8.3%) of roughly 52,000 compounds were called active. Rule as the data show it: active = survival mostly below about 52% (no sharp cut-off); inactive = mostly above about 56%. This is one part of the list.
# Tested on: DeltatarO mutant
# Assay: S. aureus survival, RN4220 and DeltatarO strains – OD600, teichoic acid synthesis inhibitors, primary screen (AID 463173)
# Details: S. aureus RN4220 wild type/DeltatarO growth, OD600, 18 h, stronger effect = lower value, screened at 18.75 µg/mL (by protocol)
row,SMILES,survival
1,COc1ccccc1C(c1c(O)cc(C)n(Cc2ccco2)c1=O)N1CCCCC1 (stereo unspecified),inactive: 91%
2,Cc1ccc(NCC(O)CN)c(Br)c1 (stereo unspecified),inactive: 100%
3,Cc1cccc(N2CCN(S(=O)(=O)c3cc(C(=O)Nc4ccc(Oc5ccccc5)cc4)ccc3F)CC2C)c1 (stereo unspecified),inactive: 88%
4,COc1ccc(C(=O)NCCn2cc(SCC(=O)Nc3ccc4c(c3)OCCO4)c3ccccc32)cc1,inactive: 153%
5,N#C/C(=C(/O)CCCN1C(=O)c2ccccc2C1=O)c1nc2ccccc2[nH]1,inactive: 95%
6,COC(=O)c1ccc(NC(=O)c2c(NCc3cccc(F)c3)sc3c2CCCC3)cc1,inactive: 78%
7,Cc1cc2c(cc1S(=O)(=O)N(CCN(C)C)Cc1ccccc1)OCC(=O)N2,inactive: 102%
8,COc1ccc(-c2noc(CNC(=O)c3cc(OC)c(OC)c(OC)c3)n2)cc1,inactive: 55%
9,CC1CCc2onc(C(=O)Nc3ccc(Cl)cc3)c2C1 (stereo unspecified),inactive: 75%
10,Cc1[nH]c2ccc(C(=O)NCCCN3CCCCC3)cc2c1C,inactive: 105%
11,CCCN(c1ccccc1F)S(=O)(=O)c1ccc2c(c1)C(C)(C)C(=O)N2C,inactive: 79%
12,CC(=O)N1CCC(N(Cc2ccc(C)o2)C(=O)Nc2ccccc2F)CC1,inactive: 89%
13,Cc1nc2c(c(C)c1CCC(=O)NCc1ccc(F)cc1)c(=O)n(C)c(=O)n2C,inactive: 95%
14,CCOc1ccccc1NC(=O)CSc1c2c(nc3ccc(Cl)cc13)CCCC2,active: 45%
15,COc1ccc(S(=O)(=O)N(CC(=O)NCCSc2ccc(C)cc2)c2ccc(C)cc2)cc1,inactive: 127%
16,CCc1c(-c2ccccc2)nc2ccccc2c1C(=O)NC(C)c1ccccc1 (stereo unspecified),inactive: 63%
17,CCOC(=O)C1CCCN(S(=O)(=O)c2cc(-c3onc(C)c3C)ccc2OC)C1 (stereo unspecified),inactive: 83%
18,CCOc1ccccc1NC(=O)c1nc(S(=O)(=O)Cc2cccc(C)c2)ncc1Cl,inactive: 66%
19,Cc1ccc(-c2nc(S(=O)(=O)c3ccc(F)cc3)c(N3CCN(c4ccccc4)CC3)o2)cc1,inactive: 72%
20,CC(C)C[C@H](N)c1nnc(SCc2ccc(Cl)cc2Cl)o1,active: 38%
21,C/C(=N\NC(=O)COc1ccccc1)C1C(=O)c2ccccc2C1=O,inactive: 80%
22,Cc1ccccc1Nc1nn2c(=O)c3ccc(C(=O)NCC(C)c4ccccc4)cc3nc2s1 (stereo unspecified),inactive: 66%
23,CC1=C(c2ccc(C(C)C)cc2)S(=O)(=O)N=C1N1CCN(c2ccccc2F)CC1,inactive: 85%

row,SMILES,survival
1,CCOc1ccccc1NC(=O)Cn1nnc(C(=O)NCc2cccs2)c1N,inactive: 94%
2,OCCN1C2=NCCCN2c2ccccc21,inactive: 88%
3,COc1ccc(NCc2cc3cc4c(cc3n(CC(=O)Nc3ccc(C)cc3C)c2=O)OCO4)cc1,inactive: 87%
4,CCOc1c(Br)cc(C2C=C(C(=O)O)Nc3ncnn32)cc1OC (stereo unspecified),inactive: 101%
5,CC(=O)N1c2ccccc2C(=O)C1N1CCN(c2ccc(Cl)cc2)CC1 (stereo unspecified),inactive: 71%
6,O=C(NCc1ccccc1)c1cc(Sc2cccc(Cl)c2)nc2ccccc12,inactive: 88%
7,CCOC(=O)c1cc(OC(=O)c2ccccc2F)n(-c2ccccc2)n1,inactive: 65%
8,COc1ccccc1CNC(=O)C(=O)NCC(c1ccco1)S(=O)(=O)c1cccs1 (stereo unspecified),inactive: 103%
9,O=C(NC1CCCCC1)c1cc2c(Cl)nc3ccccc3c2s1,inactive: 80%
10,CCn1cnc2sc(C)c(C)c2c1=O,inactive: 94%
11,Cc1cccc(-c2noc(CN(C(=O)COc3ccc(Br)cc3C)C(C)C)n2)c1,active: 45%
12,CCn1cc(C(=O)N2CCN(c3cc(C)ccc3C)CC2)c(=O)c2cc(S(=O)(=O)N3CCOCC3)ccc21,inactive: 89%
13,CCn1c(=O)n(CC)c2cc(N3CCCCC3)c(NC(=O)Nc3cc(C)cc(C)c3)cc21,inactive: 100%
14,COc1ccc(Cl)cc1NC(=O)Cn1c(=O)n(Cc2ccco2)c(=O)c2cccnc21,inactive: 86%
15,Cc1ccn2c(Nc3ccccc3C)c(-c3ccccn3)nc2c1,active: 11%
16,COCCCNC(=O)C1CCCN(C(=O)c2cnn(-c3ccc(F)cc3)c2-n2cccc2)C1 (stereo unspecified),inactive: 94%
17,Cc1cc(C)c(CSc2nnc(C)n3c2cc2occc23)c(C)c1,active: 40%
18,CCN(Cc1ccccc1)C(=O)c1nc(-c2cccc(F)c2)n2c1CCCCC2,inactive: 97%
19,O=C(NC1CCCCC1)c1cc(Nc2cccc(C(F)(F)F)c2)nc2ccccc12,inactive: 81%
20,COc1cc(NC(=O)c2noc3c2CSc2ccccc2-3)cc(OC)c1OC,inactive: 103%
21,Cc1ccn2c(=O)cc(CSc3nnc(NC(=O)c4ccccc4Cl)s3)nc2c1,inactive: 86%
22,COc1cc(C(=O)Nc2nc3nc(-c4ccccc4)cc(=O)n3[nH]2)cc(OC)c1OC,inactive: 71%
23,Cc1ccc(SCc2nc(-c3ccc(C(=O)NCc4ccc(Cl)cc4)cc3)oc2C)cc1,inactive: 76%
